Test results reported in article PMC5339707, “ACCORD: an assessment tool to determine the orientation of homodimeric coiled-coils” (Scientific Reports, 2017).

Biological target: the molecule itself
Assay: SEC-MALS; self-association of His6-SspB-CCD fusion proteins (ACCORD); Superdex 200 10/300 GL, 50 mM Tris pH 8.0, 0.5 mM TCEP, 200 mM NaCl; sample 3-5 mg/ml, 0.5 ml

B1: His6-SspB-BECN1 ([…]) fusion protein (other, E. coli | H. sapiens)
chain: MDLSQLTPRRPYLLRAFYEWLLDNQLTPHLVVDVTLPGVQVPMEYARDGQIVLNIAPRAVGNLELANDEVRFNARFGGIPRQVSVPLAAVLAIYARENGAGTMFEPEAAYDEDTSIMNDEEASADNETVMSVIDGDKPDHDDDTHPDDEPPQPPRGGRPALRVVK[about 100 residues left out here]
notes: Stringent starvation protein B (SspB), E. coli, full length, […] ([…]), amplified from genomic DNA; Beclin-1 (BECN1), human cDNA, coiled-coil domain, […] ([…]); the construct here was amplified from human cDNA; also called Beclin-1; source: E. coli BL21(DE3), purified (HisTrap, Superdex 200); not shown: His6, N-terminal, kept
stoichiometry N: 4
